Assay results: patent EP4755398A1, “MULTIDRUG LINKER AND ANTIBODY-DRUG CONJUGATE” (priority 2023, dated 2025)

B1: RS7-A132 (conjugate, chains of the INN, looked up)
heavy: QVQLQQSGSELKKPGASVKVSCKASGYTFTNYGMNWVKQAPGQGLKWMGWINTYTGEPTYTDDFKGRFAFSLDTSVSTAYLQISSLKADDTAVYFCARGGFGSSYWYFDVWGQGSLVTVSSASTKGPSVFPLAPSSKSTSGGTAALGCLVKDYFPEPVTVSWNSGALTSGVHTFPAVLQSSGLYSLSSVVTVPSSSLGTQTYICNVNHKPSNTKVDKRV[letters of human IgG1 Fc omitted]
light: DIQLTQSPSSLSASVGDRVSITCKASQDVSIAVAWYQQKPGKAPKLLIYSASYRYTGVPDRFSGSGSGTDFTLTISSLQPEDFAVYYCQQHYITPLTFGAGTKVEIKRTVAAPSVFIFPPSDEQLKSGTASVVCLLNNFYPREAKVQWKVDNALQSGNSQESVTEQDSKDSTYSLSSTLTLSKADYEKHKVYACEVTHQGLSSPVTKSFNRGEC
modifications: A132 drug-linker payload
B2: RS7-A146 (conjugate, chains of the INN, looked up)
heavy: QVQLQQSGSELKKPGASVKVSCKASGYTFTNYGMNWVKQAPGQGLKWMGWINTYTGEPTYTDDFKGRFAFSLDTSVSTAYLQISSLKADDTAVYFCARGGFGSSYWYFDVWGQGSLVTVSSASTKGPSVFPLAPSSKSTSGGTAALGCLVKDYFPEPVTVSWNSGALTSGVHTFPAVLQSSGLYSLSSVVTVPSSSLGTQTYICNVNHKPSNTKVDKRV[letters of human IgG1 Fc omitted]
light: DIQLTQSPSSLSASVGDRVSITCKASQDVSIAVAWYQQKPGKAPKLLIYSASYRYTGVPDRFSGSGSGTDFTLTISSLQPEDFAVYYCQQHYITPLTFGAGTKVEIKRTVAAPSVFIFPPSDEQLKSGTASVVCLLNNFYPREAKVQWKVDNALQSGNSQESVTEQDSKDSTYSLSSTLTLSKADYEKHKVYACEVTHQGLSSPVTKSFNRGEC
modifications: A146 drug-linker payload
B3: RS7-A149 (conjugate, chains of the INN, looked up)
heavy: QVQLQQSGSELKKPGASVKVSCKASGYTFTNYGMNWVKQAPGQGLKWMGWINTYTGEPTYTDDFKGRFAFSLDTSVSTAYLQISSLKADDTAVYFCARGGFGSSYWYFDVWGQGSLVTVSSASTKGPSVFPLAPSSKSTSGGTAALGCLVKDYFPEPVTVSWNSGALTSGVHTFPAVLQSSGLYSLSSVVTVPSSSLGTQTYICNVNHKPSNTKVDKRV[letters of human IgG1 Fc omitted]
light: DIQLTQSPSSLSASVGDRVSITCKASQDVSIAVAWYQQKPGKAPKLLIYSASYRYTGVPDRFSGSGSGTDFTLTISSLQPEDFAVYYCQQHYITPLTFGAGTKVEIKRTVAAPSVFIFPPSDEQLKSGTASVVCLLNNFYPREAKVQWKVDNALQSGNSQESVTEQDSKDSTYSLSSTLTLSKADYEKHKVYACEVTHQGLSSPVTKSFNRGEC
modifications: A149 drug-linker payload

tested on: BXPC-3 human pancreatic cancer cells; assay: In vivo anti-tumor activity, BXPC-3 xenograft (TROP2-targeting RS7 ADCs); set-up: species or system nude mice; conditions: 30 mg/kg intravenously, once a week, 2 administrations; Figure 43
Description: BXPC-3 human pancreatic cancer cells (ATCC), which express medium to high levels of TROP2, were suspended in PBS, and 5×10^6 cells were subcutaneously transplanted into the right flank of female nude mice. Random grouping was performed on day 5. On the grouping day, the antibody-drug conjugates RS7-[…], RS7-[…], and RS7-[…] were administered intravenously via the tail vein at a dose of 30 mg/kg each. A negative control group was set up, receiving an equivalent dose of PBS via tail vein injection. Administration was performed once a week, for a total of 2 administrations. After administration, tumor volume was measured twice a week using calipers, and body weight was recorded. Tumor volume was calculated according to the following formula: V= 1/2×a×b^2, where a and b represent length and width, respectively.

How did the “anti-tumor activity (tumor volume over time)” value turn out when B1 was run?
The value was “good anti-tumor activity”.

B2 was tested. Which “anti-tumor activity (tumor volume over time)” value did it give?
Its value is “good anti-tumor activity”.

How did the “anti-tumor activity (tumor volume over time)” value turn out when B3 was run?
Its value is “good anti-tumor activity”.
